The RNAGym collection of RNA variant scans (doi:10.1073/pnas.2313332121)
Variants at the background level are over-represented here.

B1: TPR 5TU (parent)
chain: GGAUCUUCUCGAUCUAACAAAAAAGACAAAUCUGCCACAAAGCUUGAGAGCAUCUUCGGAUGCAGAGGCGGCAGCCUUCGGUGGCGCGAUAGCGCCAACGUUCUCAACUAUGACACGCAAAACGCGUGCUCCGUUGAAUGGAGUUUAUCAUG

Variants of: B1
Test: polymerase ribozyme fitness, log enrichment relative to wild type (log ratio); higher = more active; in vitro selection for triplet polymerase activity
Summary of the method: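 Each subunit of a heterodimeric triplet polymerase ribozyme was mutagenized into a library by PCR, transcribed, and subjected to one round of in vitro selection, run in triplicate. Libraries were annealed with a biotinylated primer, the partner subunit and triplets, incubated frozen at −7 °C, and extended constructs were gel-excised, captured on streptavidin beads and recovered by RT-PCR. Input and output libraries were sequenced on Illumina, keeping genotypes with ≥10 input reads and ≥1 read per output. Fitness is log base 2 of genotype enrichment divided by wild-type enrichment, from inverse-variance-weighted replicate averages.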

Compared with GGAUCUUCUCGAUCUAACAAAAAAGACAAAUCUGCCACAAAGCUUGAGAGCAUCUUCGGAUGUAGAGGCGGCAGCCUUCGGUGGCGCGAUAGCGCCAACGUUCUCAACUAUGACACGCAAAACGCGUGCUCCGUUGAAUGGAGUUUAUCAUG [C63U], GGAUCUUCUCGAUCUAACAAAAAAGACAAAUCUGCCACAAAGCUUGAGAGCAUCUUCGGAUGAAGAGGCGGCAGCCUUCGGUGGCGCGAUAGCGCCAACGUUCUCAACUAUGACACGCAAAACGCGUGCUCCGUUGAAUGGAGUUUAUCAUG [C63A] is higher in “polymerase ribozyme fitness (log ratio)” value: -0.0732 for the first, 0.15 for the second.

Going from GGAUCUUCUCGAUCUAACAAAAAAGACAAAUCUGCCACAAAGCUUGAGAGCAUCUUCGGAUGUAGAGGCGGCAGCCUUCGGUGGCGCGAUAGCGCCAACGUUCUCAACUAUGACACGCUAAACGCGUGCUCCGUUGAAUGGAGCUUAUCAUG [C63U A119U U144C] to GGAUCUUCUCGAUCUAACAAAAAAGACAAAUCUGCCACAAAGCUUGAGAGCAUCUUCGGAUGGAGAGGCGGCAGCCUUCGGUGGCGCGAUGGCGCCAACGUGCUCAACUAUGACACGCAAAACGCGUGCUCCGUUGAAUGGAGAUUAUCAUG [C63G A91G U102G U144A], the “polymerase ribozyme fitness (log ratio)” value falls from -0.319 to no more than -4.2.

Compared with GGAUCUUCUCGAUCUAACAAAAAAGACAAAUCUGCCACAAAGCUUGAGAGCAUCUUCGGAUGAAGAGGCGGCAGCCUUCGGUGGCGCGAUAGCGCCAACGUUCUCAACUAUGACACGCAUAACCCGUGCUCCGUUGAAUGGAGUUUAUCAUG [C63A A120U G124C], GGAUCUUCUCGAUCUAACAAAAAAGACAAAUCUGCCACAAAGCUUGAGAGCAUCUUCGGAUGUAGAGGCGGCAGCCUUUGGUGGCGCGAUAGCGCCAACGUUUUCAACUAGGACACGCAAAACGAGUGCUCCGUUGAAUGGAGUUUAUCAUG [C63U C79U C103U U111G C125A] is lower in “polymerase ribozyme fitness (log ratio)” value: -2.49 for the first, no more than -4.2 for the second.

Going from GGAUCUUCUCGAUCUAACAAAAAAGACAAAUCUGCCACAAAGCUUGAGAGCAUCUUCGGAUGUAGAGACGGCAGCCUUCGGUGGCGGGAUAGCGCCAACGUUCUCAACUAUGACACGCAAAACGCGUGCUCCGUUGAAUGGAGUUUAUCAUG [C63U G68A C87G] to GGAUCUUCUCGAUCUAACAAAAAAGACAAAUCUGCCACAAAGCUUGAGAGCAUCUUCGGAUGAAGAGGCGGCAGCCUUCGGUGGCGCGAUAGCGCCAACGUUCUCAACUAUGACACGCAAAACGCGUGCUCCGUUGAAUGGAGUUUCUCAUG [C63A A147C], the “polymerase ribozyme fitness (log ratio)” value rises from no more than -4.2 to 0.331.

First: GGAUCUUCUCGAUCUAACAAAAAAGACAAAUCUGCCACAAAGCUUGAGAGCAUCUUCGGAUGGAAAGGCGACAGCCUUCGGUGGCGAGAUAGCGCCAACGUUCUCAACUAUGACACGUAAAACGCGUGCUCCGUUGAAUGGAGUCUAUCAUG [C63G G65A G71A C87A C118U U145C]
Second: GGAUCUUCUCGAUCUAACAAAAAAGACAAAUCUGCCACAAAGCUUGAGAGCAUCUUCGGAUGUAGAGGCGGCAGCCUUCGGUGGCGCGAUAGCGCCAACGUUCUCAACUAUGACACGCAAAACGCCUGCUCCGUUGAAUGGAGUUUAUCAUG [C63U G126C]
The “polymerase ribozyme fitness (log ratio)” value of the first is lower: no more than -4.2 for the first, 0.627 for the second.

Going from GGAUCUUCUCGAUCUAACAAAAAAGACAAAUCUGCCACAAAGCUUGAGAGCAUCUUCGGAUGGAGAGGGGGCAGCCUUCGGUGGCGCGAUAGCGCCAACGUUCUCAACUAUGACACGCAAAACGCGUGCUCCGUUGAAUGGAGUUUAUCAUG [C63G C69G] to GGAUCUUCUCGAUCUAACAAAAAAGACAAAUCUGCCACAAAGCUUGAGAGCAUCUUCGGAUGGAGAGGCGGCGGCCUUCGGUGGCGCGAUAGCGCCAACGUUCUCAACUAUGACACGCAAAACGCGUGCUCCGUUGAAUGGAGUUUAUCAUG [C63G A73G], the “polymerase ribozyme fitness (log ratio)” value rises from -1.75 to -0.51.

GGAUCUUCUCGAUCUAACAAAAAAGACAAAUCUGCCACAAAGCUUGAGAGCAUCUUCGGAUGUAGAGGCGGCAGCCUUCGGUGGCGCUAUAGCGCCAACGUUCUCAACUAUGACACGCAAAACGCGUGCUCCGUUGAAUGGAGUUUAUCAUG [C63U G88U] and GGAUCUUCUCGAUCUAACAAAAAAGACAAAUCUGCCACAAAGCUUGAGAGCAUCUUCGGAUGGAGAGCCGGCAGCCUUCGGUGGCGCGAUAGCGCCAACGUUCUCAACUAUGACACGCAAAACGCGUGCUCCGUUGAAUGGAGUUUAUCAUG [C63G G68C] cannot be ordered by “polymerase ribozyme fitness (log ratio)” value: no more than -4.2 for the first, no more than -4.2 for the second.

Compared with GGAUCUUCUCGAUCUAACAAAAAAGACAAAUCUGCCACAAAGCUUGAGAGCAUCUUCGGAUGAAGAGGCGGCAGCCUGCGGUGGCGCGAUAGUGCCAACGUUUUUCACUAUGACACGUAAAACGCGUGCUCCGUUGAAUGGAGUUUAUCAUG [C63A U78G C93U C103U C105U A106C C118U], GGAUCUUCUCGAUCUAACAAAAAAGACAAAUCUGCCACAAAGCUUGAGAGCAUCUUCGGAUGAAGAGGCGGCAGCCUUCGGUGGCGCGAUAGCGCCAACGUUCUCAACUAUGACACUCCAAACGCGUGCUCCGUUGAAUGGAGUUUAUCAUG [C63A G117U A119C] is higher in “polymerase ribozyme fitness (log ratio)” value: no more than -4.2 for the first, 0.257 for the second.

GGAUCUUCUCGAUCUAACAAAAAAGACAAAUCUGCCACAAAGCUUGAGAGCAUCUUCGGAUGUAGAGGCGGCAGCCUUCGGUGGCGCGAUAGCGCCAAGGUUCUCAACUAUGACACGCAGAACGAGUGCUCCAUUGAAUGGAGUUUAUCAUG [C63U C99G A120G C125A G133A] and GGAUCUUCUCGAUCUAACAAAAAAGACAAAUCUGCCACAAAGCUUGAGAGCAUCUUCGGAUGUAGAUGCGGCAGCCUUCGGUGGCGCAUUAGCGACAACGUUCUCAACUAUGACACGCAAAACGCGUGCUCCGUUGAAUGGAGUUUAUCAUG [C63U G67U G88A A89U C95A] cannot be ordered by “polymerase ribozyme fitness (log ratio)” value: no more than -4.2 for the first, no more than -4.2 for the second.

With GGAUCUUCUCGAUCUAACAAAAAAGACAAAUCUGCCACAAAGCUUGAGAGCAUCUUCGGAUGUAGAGGCGGCAGCCUUCGGUGGCGCGAUAACGCCAACGUUCUCAAAUAUGACACGCAAAACGCGUGCUCCGUUGAAUGGAAUUUAUCAUG [C63U G92A C108A G143A] the “polymerase ribozyme fitness (log ratio)” value was no more than -4.2.
